# Measured values taken from the supplement of paper PMC4604168 (melanoma cell lines).
# The other results are listed elsewhere or left out. Most values come without repeats; read them as rough.
# Experiments:
# Assay in all cases: cell count relative to DMSO control; melanoma cells; higher = more viable cells
# Settings in all cases: library dose: low library concentration; 72 h
# [1] = test system: MZ2-MEL
# [2] = test system: MeWo
# [3] = test system: RPMI7951
# [4] = test system: RVH-421
# [5] = test system: SkMel28
# [6] = test system: SkMel2
# [7] = test system: SkMel30
# [8] = test system: SkMel5
# [9] = test system: UACC257
# [10] = test system: UACC62
# 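Also: cell number obtained by counting DAPI-stained nuclei in high-throughput microscope images with image analysis software, screen run in 1,536-well plates.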
SMILES,cell count [1] [%],cell count [2] [%],cell count [3] [%],cell count [4] [%],cell count [5] [%],cell count [6] [%],cell count [7] [%],cell count [8] [%],cell count [9] [%],cell count [10] [%]
"COc1ccc(C2=N[C@@H](c3ccc(Cl)cc3)[C@@H](c3ccc(Cl)cc3)N2C(=O)N2CCNC(=O)C2)c(OC(C)C)c1 [Nutlin-3] + O=C(Nc1ccccc1)c1cc([N+](=O)[O-])ccc1Cl [GW9662] (first compound 0.1 µM, partner dose 2 µM)",100,93,107,90.1,88.9,100,88.5,96.9,110,92.9
"Cc1cc(Nc2cc(N3CCN(C)CC3)nc(/C=C/c3ccccc3)n2)n[nH]1 + CC1(C)NC(=O)N(c2ccc([N+](=O)[O-])c(C(F)(F)F)c2)C1=O [nilutamide] (first compound 0.04 µM, partner dose 1 µM)",104,94.2,95,124,90.8,99.4,105,83.4,95.4,88.5
"Cc1cn(-c2cc(NC(=O)c3ccc(C)c(Nc4nccc(-c5cccnc5)n4)c3)cc(C(F)(F)F)c2)cn1 [nilotinib] + Cc1cc([N+](=O)[O-])ccc1NS(=O)(=O)c1cc(Cl)ccc1Cl [FH535] (first compound 0.2 µM, partner dose 1 µM)",95.7,97.8,99.6,143,80.9,91.4,82.8,79.2,88.2,88.2
"Cn1c(=O)n(-c2ccc(C(C)(C)C#N)cc2)c2c3cc(-c4cnc5ccccc5c4)ccc3ncc21 + Oc1cc(-c2nc(-c3ccccc3)[nH]c2-c2ccncc2)ccc1Cl [L779450] (first compound 0.004 µM, partner dose 0.2 µM)",72.8,71.3,76.2,72.4,55.7,83.3,92,94.3,81.6,74.4
"Cn1c(=O)n(-c2ccc(C(C)(C)C#N)cc2)c2c3cc(-c4cnc5ccccc5c4)ccc3ncc21 + CO[C@@H]1[C@H](N(C)C(=O)c2ccccc2)C[C@H]2O[C@]1(C)n1c3ccccc3c3c4c(c5c6ccccc6n2c5c31)C(=O)NC4 [Midostaurin] (first compound 0.004 µM, partner dose 0.08 µM)",100,80.6,85.5,84.4,67.1,83.1,89.4,102,73.4,98.5
"Cc1cn(-c2cc(NC(=O)c3ccc(C)c(Nc4nccc(-c5cccnc5)n4)c3)cc(C(F)(F)F)c2)cn1 [nilotinib] + CC(C)CCN1c2nc(Nc3cc(F)c(O)c(F)c3)ncc2N(C)C(=O)C1C [BID1870] (first compound 0.2 µM, partner dose 0.2 µM)",97,89.6,102,87.4,80.1,89.4,78.8,96.6,85.4,85.2
"CC(C)C[C@H](NC(=O)[C@H](Cc1ccccc1)NC(=O)c1cnccn1)B(O)O [Bortezomib] + O=C(O)C(=O)Nc1sc2c(c1C(=O)O)CCNC2 [TCS401] (first compound 0.001 µM, partner dose 1.66667 µM)",94.2,98.8,94.3,81.5,102,95.3,86.4,102,101,83.6
"Cc1cc(Nc2cc(N3CCN(C)CC3)nc(/C=C/c3ccccc3)n2)n[nH]1 + O=C(Nc1cccc(Cl)c1)Nc1ncc(CCNc2ncnc3ccsc23)s1 [SNS314] (first compound 0.04 µM, partner dose 0.0008 µM)",110,108,91.8,106,99.7,100,91.3,92.7,107,95.9
"Cn1c(=O)n(-c2ccc(C(C)(C)C#N)cc2)c2c3cc(-c4cnc5ccccc5c4)ccc3ncc21 + CCc1ccc(CCOc2ccc(CC3SC(=O)NC3=O)cc2)nc1 [pioglitazone] (first compound 0.004 µM, partner dose 2 µM)",93.2,91.8,110,90.2,67.1,91.1,83.8,118,99,93.4
"Cn1c(=O)n(-c2ccc(C(C)(C)C#N)cc2)c2c3cc(-c4cnc5ccccc5c4)ccc3ncc21 + NCC(=O)Nc1ccc(-n2nc(C(F)(F)F)cc2-c2ccc3c(ccc4ccccc43)c2)cc1 [OSU03012] (first compound 0.004 µM, partner dose 1 µM)",108,61.3,95.8,108,59.9,87.9,71.1,91.7,75.2,57.6
"Cc1cn(-c2cc(NC(=O)c3ccc(C)c(Nc4nccc(-c5cccnc5)n4)c3)cc(C(F)(F)F)c2)cn1 [nilotinib] + CN(C)S(=O)(=O)c1ccc2c(c1)/C(=C/c1cc3c([nH]1)CCCC3)C(=O)N2 [SU6656] (first compound 0.2 µM, partner dose 0.4 µM)",102,100,95.2,82.4,89.2,105,95.5,94.4,93.1,78.8
"Cc1cn(-c2cc(NC(=O)c3ccc(C)c(Nc4nccc(-c5cccnc5)n4)c3)cc(C(F)(F)F)c2)cn1 [nilotinib] + O=C(O)c1ccc(-c2c[nH]c3ncc(-c4ccccc4)cc23)cc1C1CCCC1 [GSK650394] (first compound 0.2 µM, partner dose 0.16 µM)",105,101,97,109,87.7,107,106,98.4,82.5,93.6
"CC(C)C[C@H](NC(=O)[C@H](Cc1ccccc1)NC(=O)c1cnccn1)B(O)O [Bortezomib] + c1cc(-c2cnn3cc(-c4ccc(OCCN5CCCCC5)cc4)cnc23)ccn1 [Dorsomorphin] (first compound 0.001 µM, partner dose 0.4 µM)",70.3,90.8,95.5,53.9,97.8,111,73.3,89.8,68.8,62.3
"COc1ccc(C2=N[C@@H](c3ccc(Cl)cc3)[C@@H](c3ccc(Cl)cc3)N2C(=O)N2CCNC(=O)C2)c(OC(C)C)c1 [Nutlin-3] + CC1(C)NC(=O)N(c2ccc([N+](=O)[O-])c(C(F)(F)F)c2)C1=O [nilutamide] (first compound 0.1 µM, partner dose 1 µM)",99.8,98.9,109,76.7,98.5,92,124,83.2,75.4,96.1
"Cc1cc(Nc2cc(N3CCN(C)CC3)nc(/C=C/c3ccccc3)n2)n[nH]1 + OCCn1cc(-c2cnc3nnn(Cc4ccc5ncccc5c4)c3n2)cn1 [PF04217903] (first compound 0.04 µM, partner dose 1 µM)",102,101,81.9,92.2,87.3,96.3,113,94.2,82.8,92.8
"Cc1cn(-c2cc(NC(=O)c3ccc(C)c(Nc4nccc(-c5cccnc5)n4)c3)cc(C(F)(F)F)c2)cn1 [nilotinib] + CN1CCN(c2ccc3nc(-c4c(N)c5c(F)cccc5[nH]c4=O)[nH]c3c2)CC1 [Dovitinib] (first compound 0.2 µM, partner dose 0.1 µM)",91.3,110,107,106,95.3,85,116,,,112
"Cc1cc(Nc2cc(N3CCN(C)CC3)nc(/C=C/c3ccccc3)n2)n[nH]1 + Cc1ccc(NC(=O)c2cccc(N(C)C)c2)cc1NC(=O)c1ccc(O)cc1 [ZM336372] (first compound 0.04 µM, partner dose 2 µM)",91.1,97.9,82.7,115,80.9,105,76.6,76.3,59.8,89.4
"Cc1cc(Nc2cc(N3CCN(C)CC3)nc(/C=C/c3ccccc3)n2)n[nH]1 + Cc1cc(N2CCOCC2)cc2[nH]c(-c3c(NC[C@@H](O)c4cccc(Cl)c4)cc[nH]c3=O)nc12 [BMS536924] (first compound 0.04 µM, partner dose 0.2 µM)",99.9,89.7,96,89.3,86.9,101,91.3,93.3,79.8,95.2
"COc1ccc(C2=N[C@@H](c3ccc(Cl)cc3)[C@@H](c3ccc(Cl)cc3)N2C(=O)N2CCNC(=O)C2)c(OC(C)C)c1 [Nutlin-3] + C[C@@H]1CCN(C(=O)CC#N)C[C@@H]1N(C)c1ncnc2[nH]ccc12 [CP690550] (first compound 0.1 µM, partner dose 1 µM)",102,93.6,115,87,85.3,99.3,101,88.1,84.5,88.6
"Cn1c(=O)n(-c2ccc(C(C)(C)C#N)cc2)c2c3cc(-c4cnc5ccccc5c4)ccc3ncc21 + CCCS(=O)(=O)Nc1ccc(F)c(C(=O)c2c[nH]c3ncc(Cl)cc23)c1F [PLX4720] (first compound 0.004 µM, partner dose 0.08 µM)",87.7,75.5,100,88.5,96.9,92.2,91.2,,,71
"COc1ccc(C2=N[C@@H](c3ccc(Cl)cc3)[C@@H](c3ccc(Cl)cc3)N2C(=O)N2CCNC(=O)C2)c(OC(C)C)c1 [Nutlin-3] + C=CCn1c(=O)c2cnc(Nc3ccc(N4CCN(C)CC4)cc3)nc2n1-c1cccc(C(C)(C)O)n1 [MK1775] (first compound 0.1 µM, partner dose 0.02 µM)",100,101,100,90.1,70.4,88.7,89.7,80.5,71.5,65
"COc1ccc(C2=N[C@@H](c3ccc(Cl)cc3)[C@@H](c3ccc(Cl)cc3)N2C(=O)N2CCNC(=O)C2)c(OC(C)C)c1 [Nutlin-3] + COc1ccc2c(c1)CCC1C2CCC2(C)C(NCCCCCCN3C(=O)C=CC3=O)CCC12 [U73122] (first compound 0.1 µM, partner dose 0.4 µM)",99.4,101,65.5,56.4,94.5,93.4,110,89.1,96.6,90.9
